Experimental data taken from PubChem BioAssay AID588855 (National Center for Advancing Translational Sciences (NCATS), 2011).
Screen size: about 410,000 compounds; about 5,000 (1.2%) were called active. Inconclusive means that the source gave no clear call. Such entries were picked first, then a sample of the others. The call rests on the fitted dose curve; in most records, active means well fitted inhibition curve with a large enough effect; inconclusive means small, poorly fitted or top-dose-only effect; inactive means no such curve, though single readings can be large or run the other way. A potency beside an inconclusive call is a rough fit, not a confirmed value.

assay: qHTS for Inhibitors of TGF-b; conditions: HepG2 CAGA-GFP TGF-b/SMAD3 reporter, GFP fluorescence, 18 h, TGF-beta stimulated, 500 pg/mL final; series mostly up to 46.1 µM; activity, negative = inhibition: at the top concentration; further: nearly all actives have a fitted effect of over 65% in size
Outline: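 Read-out: total well GFP (ex488/em500-530) summed from mean per-cell fluorescence. Cells: HEPG2 CAGA-GFP, 1% FBS DMEM, 18 h at 37 degrees C with 500 pg/mL final TGF-beta. Unstimulated wells served as the full-inhibition control; stimulated DMSO wells = 0%.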
On the % scale 0 is the no-effect control and ±100 the full control effect; potency means the concentration at half of the fitted maximal effect; tags describe the fitted curve by direction and shape.

Which “activity, negative = inhibition” value does the source give for `O=C(O)c1ccccc1C(=O)Nc1ccccc1` here?
Its value is inactive: -23.3%.

With `CCCC(C)C(=O)Nc1nc(C)c(-c2csc(Nc3ccc(Cl)cc3)n2)s1` (configuration not stated) as the compound, how does the “activity, negative = inhibition” value read?
Its value is inactive: -4.67%.

Which Potency does the source give for `O=[N+]([O-])c1cc(Cl)cc(/C=N\Nc2ccccn2)c1O` here?
The Potency was inconclusive: 1.58 µM [inhibitor, partial curve, poor fit].

With `CCCCN(C)CCCNC(=O)c1ccc2c(c1)NC(=O)C(N1CCOCC1)S2` (configuration not stated) as the compound, how does the “activity, negative = inhibition” value read?
The value was inactive: -28.2%.

With `O=C(CCN1CCCCC1)c1ccc2c(c1)OCCO2` as the compound, how does the Potency read?
The Potency was inconclusive: 14.1 µM [inhibitor, single point].

Which “activity, negative = inhibition” value does the source give for `CN(C(=O)CSc1nc2ccccc2n1CC(=O)N(C)c1ccc(F)cc1)c1ccccc1` here?
The value was inactive: -21%.

Which “activity, negative = inhibition” value does the source give for `COc1ccccc1C(=O)N1CCN(c2ccc(N3CCOCC3)nn2)CC1` here?
Its value is inactive: -22%.

For `CCC(=O)Nc1cccc(-c2cn3ccccc3n2)c1`, which “activity, negative = inhibition” value is on record?
The value was inactive: -20.4%.

For `CCN1CNC(=S)N(CCc2ccccc2)C1`, which “activity, negative = inhibition” value is on record?
The value was inactive: 6.92%.

Which “activity, negative = inhibition” value does the source give for `COc1ccc(N(CC(=O)N2CCOCC2)S(C)(=O)=O)cc1` here?
Its value is inactive: 10.2%.

For `C/C(=C\c1ccccc1)C(=O)c1c(C)cc(C)[nH]c1=O`, which “activity, negative = inhibition” value is on record?
Its value is inactive: 6.67%.

With `Cc1ccsc1-c1nc(CSCC(=O)N2CCN(c3ccccc3)CC2)c(C)o1` as the compound, how does the Potency read?
The Potency was inconclusive: 35.5 µM [inhibitor, single point].

Which Potency does the source give for `CC(C)(C)[C@@H]1C=C(C(=O)NC2CC2)O[C@H](OCc2ccc(CO)cc2)C1` here?
Its Potency is inconclusive: 0.316 µM [inhibitor, full curve, poor fit].

Which Potency does the source give for `OCCN(CCO)Cc1ccc(Br)cc1` here?
Its Potency is inconclusive: 35.5 µM [inhibitor, single point].

For `COc1ccc(NC(=O)Nc2ccc3c(c2)C(=O)N([C@H](C)CO)C[C@H](C)[C@@H](CN(C)C(=O)Nc2c(C)noc2C)O3)cc1`, which Potency is on record?
Its Potency is inconclusive: 5.62 µM [inhibitor, single point].

For `COc1ccc(/C=N\NC(=O)CNC(=O)C(c2ccccc2)c2ccccc2)cc1[N+](=O)[O-]`, which Potency is on record?
The Potency was inconclusive: 20 µM [inhibitor, single point].

For `CC1=C(C(=O)OCC2CCCCC2)C(c2ccc(F)cc2)NC(=O)N1` (configuration not stated), which Potency is on record?
The Potency was inconclusive: 35.5 µM [inhibitor, single point].

For `CC1=NN(c2ccc(Cl)cc2)C(=O)C1C(c1ccccc1O)c1c(C)[nH]n(-c2ccc(Cl)cc2)c1=O` (configuration not stated), which Potency is on record?
Its Potency is inconclusive: 35.5 µM [inhibitor, partial curve, poor fit].

With `COc1ccc(N2CCN(C(=O)c3ccccc3NS(=O)(=O)c3ccc(C)cc3)CC2)cc1` as the compound, how does the Potency read?
Its Potency is inconclusive: 35.5 µM [inhibitor, single point].

For `Cn1c(=O)c2sccc2n2c(CCC(=O)N3CCN(c4cccc(Cl)c4)CC3)nnc12`, which “activity, negative = inhibition” value is on record?
Its value is inactive: 5.49%.

Which Potency does the source give for `O=C(c1cccc(S(=O)(=O)N2CCCCC2)c1)N1CCc2ccccc21` here?
Its Potency is inconclusive: 25.1 µM [inhibitor, single point].

For `O=C(Nc1ccc(F)c(Cl)c1)c1cc(C2CCCN(C(=O)C3CC3)C2)on1` (configuration not stated), which “activity, negative = inhibition” value is on record?
Its value is inactive: -5.17%.

With `COc1cc(/C=C/C(=O)c2ccc(O)cc2)ccc1OCC#N` as the compound, how does the Potency read?
Its Potency is inconclusive: 3.16 µM [inhibitor, partial curve, poor fit].

With `COc1ccc2cc(CNCCOCCOCCNCc3ccc4cc(OC)ccc4c3)ccc2c1` as the compound, how does the Potency read?
Its Potency is active: 3.16 µM.

With `Cc1ccc(S(=O)(=O)N2[C@@H](c3ccc(F)cc3)C(C(=O)O)=CC[C@H]2c2ccc(Cl)cc2)cc1` as the compound, how does the Potency read?
The Potency was inconclusive: 12.6 µM [inhibitor, single point].

Which Potency does the source give for `O=S(=O)(c1ccccc1)N1CCN=C1SCc1c(F)cccc1Cl` here?
Its Potency is inconclusive: 15.8 µM [inhibitor, single point].

Which “activity, negative = inhibition” value does the source give for `CS(=O)(=O)N(CC(=O)N1CCc2ccccc2C1)c1ccc(Cl)cc1F` here?
Its value is inactive: 5.35%.

With `O=C1C2C3C=CC(CNS(=O)(=O)c4ccccc4)(O3)C2C(=O)N1c1ccc(Cl)cc1` (configuration not stated) as the compound, how does the “activity, negative = inhibition” value read?
The value was inactive: 1.66%.

For `CCOC(=O)C1CCCN(C(=O)c2cc(-c3ccccc3)cs2)CC1` (configuration not stated), which Potency is on record?
Its Potency is inconclusive: 2.82 µM [inhibitor, partial curve, poor fit].

With `Cc1cc(C)nc(N2CCC(C(=O)NCC3CCCCC3)CC2)n1` as the compound, how does the Potency read?
The Potency was inconclusive: 3.55 µM [inhibitor, single point].

Which Potency does the source give for `Cc1ccc(NC(=S)N2CCN(c3ccccn3)CC2)cc1C` here?
The Potency was inconclusive: 14.1 µM [inhibitor, partial curve, poor fit].

With `N#Cc1ccc(NC(=O)COC(=O)CCc2ccc(S(=O)(=O)N3CCCCC3)cc2)cc1` as the compound, how does the Potency read?
Its Potency is inconclusive: 0.0891 µM [inhibitor, full curve, poor fit].

With `COc1ccc(NC(=O)CN2CCCC2c2cccs2)cc1S(=O)(=O)N1CCCCC1` (configuration not stated) as the compound, how does the Potency read?
Its Potency is inconclusive: 14.1 µM [inhibitor, partial curve].

Which Potency does the source give for `CC(C)CC(=O)NC(NC(=S)Nc1cccc2cccnc12)C(Cl)(Cl)Cl` (configuration not stated) here?
Its Potency is inconclusive: 3.98 µM [inhibitor, partial curve, poor fit].

For `CC1(C(=O)N2CC3(CC(c4cccc(NC(=O)COc5ccc(Cl)cc5)c4)=NO3)C[C@@H]2C(N)=O)CC1` (some centres not stated), which Potency is on record?
Its Potency is inconclusive: 35.5 µM [inhibitor, single point].

With `Cc1oc(-c2cccc(Cl)c2)nc1CN1CCCC(C(=O)NCc2ccc(Cl)cc2)C1` (configuration not stated) as the compound, how does the Potency read?
Its Potency is inconclusive: 2.82 µM [inhibitor, partial curve, poor fit].

For `COc1ccccc1NC(=O)N(Cc1ccco1)Cc1cc2ccc(C)c(C)c2[nH]c1=O`, which Potency is on record?
The Potency was inconclusive: 11.2 µM [inhibitor, partial curve].

With `O=S(=O)(c1ccc2[nH]c3c(c2c1)CCCCC3)N1CCN(c2cccc(Cl)c2)CC1` as the compound, how does the Potency read?
The Potency was inconclusive: 11.2 µM [inhibitor, single point].

Which “activity, negative = inhibition” value does the source give for `Cc1ccccc1CNC(=O)c1sc2ncnc(N(C)C3CCCCC3)c2c1C` here?
The value was inactive: 2.17%.

With `CCSCCOC(=O)C1=C(C)NC(=O)NC1c1ccc2c(c1)OCO2` (configuration not stated) as the compound, how does the Potency read?
Its Potency is inconclusive: 0.112 µM [inhibitor, full curve, poor fit].

Which “activity, negative = inhibition” value does the source give for `COc1ccc(/C=N/NC(=O)c2ccc(N(C)S(=O)(=O)c3ccccc3)cc2)cc1` here?
The value was inactive: 0.113%.

Which “activity, negative = inhibition” value does the source give for `COC(=O)c1c(NC(=O)c2ccc(N(C)S(=O)(=O)c3ccc(C)cc3)cc2)sc2c1CCCC2` here?
The value was inactive: 8.04%.

For `CCOC(=O)c1oc2ccccc2c1NC(=O)CN1CCOCC1`, which Potency is on record?
The Potency was inconclusive: 0.562 µM [inhibitor, partial curve, poor fit].

For `CCc1cc(C(=O)N2CCCC(C(=O)c3ccc(Oc4ccccc4)cc3)C2)n(C)n1` (configuration not stated), which Potency is on record?
Its Potency is inconclusive: 15.8 µM [inhibitor, single point].

With `COc1cc2c(C#CCCO)c(-c3ccsc3)oc(=O)c2cc1OC` as the compound, how does the Potency read?
Its Potency is inconclusive: 1.41 µM [inhibitor, partial curve, poor fit].

With `CCCN1CCC(=O)N([C@H](CSc2ccc(OC)cc2)c2ccccc2)CC1` as the compound, how does the “activity, negative = inhibition” value read?
Its value is inactive: -4.79%.

Which “activity, negative = inhibition” value does the source give for `O=C(O)CC1CC(O)CCC1=O` (configuration not stated) here?
Its value is inactive: 1.82%.

With `COc1ccc(S(=O)(=O)N2c3ccccc3OCC2C)cc1` (configuration not stated) as the compound, how does the Potency read?
Its Potency is inconclusive: 22.4 µM [inhibitor, single point].

For `CN1c2ccccc2N(C)C1(C)c1ccccc1`, which Potency is on record?
The Potency was inconclusive: 35.5 µM [inhibitor, single point].

For `Cc1ccc(S(=O)(=O)/N=C(/Nc2ccc(F)cc2F)c2ccc(F)cc2)cc1`, which “activity, negative = inhibition” value is on record?
The value was inactive: -0.78%.

For `CCN(CC)C(=O)C1=C(C)N(CCCOC)C(=O)C(CC(=O)NC2CC2)C1` (configuration not stated), which “activity, negative = inhibition” value is on record?
Its value is inactive: 20.4%.

For `O=[N+]([O-])c1ccc(N2CCCC2)cc1NC1CC1`, which Potency is on record?
The Potency was inconclusive: 35.5 µM [inhibitor, single point].

For `Cc1ccc(-c2nc(CS(=O)(=O)CC(=O)NCc3ccccc3Cl)c(C)o2)cc1`, which Potency is on record?
Its Potency is inconclusive: 7.08 µM [inhibitor, partial curve, poor fit].

With `COc1ccc(OC)c(C2C3=C(N=c4s/c(=C\c5cccc(O)c5)c(=O)n42)c2ccccc2CC3)c1` (configuration not stated) as the compound, how does the Potency read?
Its Potency is active: 15.8 µM.

With `CCCCn1nc(NC(=O)CC)c2cc3cc(OC)ccc3nc21` as the compound, how does the Potency read?
Its Potency is inconclusive: 35.5 µM [inhibitor, single point].

Which “activity, negative = inhibition” value does the source give for `CC(NC(=O)c1ccc(Br)cc1)c1ccccc1` (configuration not stated) here?
The value was inactive: -10.5%.

Which Potency does the source give for `Cc1ccccc1CNC(=O)c1ccccc1N` here?
Its Potency is inconclusive: 12.6 µM [inhibitor, single point].

For `Nc1ccc2c(c1)ncn2CCCn1cnc2cc(N)ccc21`, which Potency is on record?
Its Potency is inconclusive: 2.82 µM [inhibitor, single point].

Which Potency does the source give for `O=C(Cn1c(=O)n(Cc2ccc(C(=O)NCc3ccccc3Cl)cc2)c(=O)c2ccccc21)Nc1ccc(F)c(Cl)c1` here?
Its Potency is inconclusive: 3.55 µM [inhibitor, partial curve, poor fit].

Which Potency does the source give for `COc1ccc(-n2c(CCc3ccccc3)nnc2SCC(=O)c2ccc(Cl)cc2)cc1` here?
The Potency was inconclusive: 28.2 µM [inhibitor, single point].

For `COC(=O)c1ccc2nc(-c3ccc4c(c3)OCO4)cn2c1`, which Potency is on record?
Its Potency is inconclusive: 0.891 µM [inhibitor, full curve, poor fit].

Which “activity, negative = inhibition” value does the source give for `O=C(Nc1ccccc1)c1ccc(-n2nncc2-c2ccccc2)cc1` here?
The value was inactive: 14.1%.

With `COC(=O)c1ccccc1S(=O)(=O)N1CCC(C(=O)NCC2CCCO2)CC1` (configuration not stated) as the compound, how does the Potency read?
The Potency was inconclusive: 35.5 µM [inhibitor, single point].

For `COc1ccc(N2CC(NC(=O)COc3ccc4ccccc4c3)CC2=O)cc1` (configuration not stated), which Potency is on record?
Its Potency is inconclusive: 7.94 µM [inhibitor, partial curve, poor fit].

Which Potency does the source give for `CSc1ncnc2c1ncn2CCCN(C)CCc1ccccn1` here?
Its Potency is inconclusive: 6.31 µM [inhibitor, single point].

For `O=C(COC(=O)c1cccc(N2C(=O)C3CC=CCC3C2=O)c1)c1ccccc1` (configuration not stated), which Potency is on record?
The Potency was inconclusive: 5.62 µM [inhibitor, single point].

With `CC(C)=CCCC(C)CN1CCC(n2nccc2NC(=O)c2ccc3c(c2)OCO3)CC1` (configuration not stated) as the compound, how does the Potency read?
Its Potency is inconclusive: 35.5 µM [inhibitor, single point].
